Reference: patent US6953814B2, “Natural insect repellant” (Stratacor, Inc., priority 1997, dated 2005)
“And” between values parts separate entries of the source, which are not always exact repeats. Equal entries are not always repeated. For some of these results: At least one read-out could not be matched to a standard name with certainty. Some of these results come from one statement about several compounds together. For some of these results: At least one structure is not confirmed: it was looked up by name or label, or the drawing left a doubt. Some compounds share one range, which may span the group rather than tell each member.

What was measured:
[1] = test system: malaria mosquito (Anopheles quadrimaculatus Say); conditions: human skin, approximately 2 mg/cm^2; cited from earlier work
Aedes aegypti mosquitoes [2] = assay: Mosquito repellency on gauze or polyester film (olfactometer); format: in vivo; conditions: cotton gauze or polyester film, 0.3 mg/cm^2, 3 minutes after application
From the text: Olfactometer: A Fiensod and […] olfactometer, as modified by Bowen and Davis, measured the host-oriented flight response of female mosquitoes to volatile host emanations (Feinsod, F. M., and […]; An olfactometer for measuring host-seeking behavior of female Aedes aegypti (Diptera: Culicidae); J. Med. Entomol., 15: 282-285, 1979). The olfactometer (approximately 38 cm high) consisted of an upper and lower screened chamber with a closure between the chambers (FIG. 8). A fan placed above the upper chamber drew air through the apparatus at approximately 0.2 m/s. A temperature and humidity controlled chamber (5' wide by 6' long by 8' high) was constructed to house the test subject and the olfactometer. Rearing of Mosquitoes: A second environmental chamber, maintained at 27° C. and 80% humidity, was dedicated to the rearing of Aedes aegypti mosquitoes. […] Assays for Attraction of Mosquitoes to Human Subjects: A group of 30 volunteers, consisting of 14 females and 16 males and ranging in age from 24 to 68 years, was selected from the surrounding civilian population. Individuals were tested for their ability to attract Aedes aegypti mosquitoes contained in the olfactometer. Tests were conducted at a temperature of 27° C. and 50% relative humidity. […] A small fan was placed on top of the upper chamber to cause an air flow from the lower chamber to the upper chamber. A trial began when the closure between the upper and lower chamber was opened in the absence of a human host. […] This trial was repeated twice during a test session to obtain three replicates. Two additional test sessions, at time intervals of at least 1 week, were conducted to obtain at least 8-9 replicates for each of 24 subjects. Of the remaining 6 subjects, 3 were tested on two separate occasions for a total of 6 replicates per subject; 3 were tested on one occasion for a total of 3 replicates per subject. A total of 254 tests were conducted. Test compounds were dissolved in acetone or ethanol at a concentration of 150 mg/5 cc. Ethanol solutions of carboxylic acids were prepared just prior to use. Five hundred microliters of these solutions were applied to a 50 cm^2 circular area of a single layer of cotton gauze (Curity Curad gauze, Futuro Inc., Milford, Ohio) or nonwoven polyester film ([…], Inc.). The resultant dose was 0.3 mg/cm^2. […] The cup was attached to the bottom of the olfactometer (FIG. 8) so that air flowed through the stainless steel screen of the cup, through the treated gauze or film, and through the olfactometer. A volunteer's forearm was placed under the cup, so that air drawn into the cup and olfactometer was laden with human skin emanations. Tests were conducted as described in the preceding paragraph, “Assays for attraction of mosquitoes to human subjects”. Percent repellency was determined from the fraction of mosquitoes entering the lower chamber over a seven minute period. This assay is an approximate measure of the intrinsic repellency of a compound. Good repellency in this test is a necessary, but not sufficient, condition for good repellency on skin. Mosquito repellents must produce a vapor over the skin surface to confuse the host seeking behavior of the insect. However, volatilization must not be so great that the repellent action rapidly dissipates. Since volatilization from the skin will be different from an inanimate surface, skin tests are necessary to confirm that a compound will be a practical repellent.

Aedes aegypti mosquitoes [3] = assay: Mosquito repellency on skin (olfactometer, human forearm); format: in vivo; conditions: dose not stated in the sentence (0.3 or 0.6 mg/cm^2 in Table 7)
From the text: Olfactometer: A Fiensod and Spielman olfactometer, as modified by Bowen and Davis, measured the host-oriented flight response of female mosquitoes to volatile host emanations (Feinsod, F. M., and A. Spielman; An olfactometer for measuring host-seeking behavior of female Aedes aegypti (Diptera: Culicidae); J. Med. Entomol., 15: 282-285, 1979). The olfactometer (approximately 38 cm high) consisted of an upper and lower screened chamber with a closure between the chambers (FIG. 8). A fan placed above the upper chamber drew air through the apparatus at approximately 0.2 m/s. A temperature and humidity controlled chamber (5′ wide by 6′ long by 8′ high) was constructed to house the test subject and the olfactometer.
Rearing of Mosquitoes: A second environmental chamber, maintained at 27° C. and 80% humidity, was dedicated to the rearing of Aedes aegypti mosquitoes. Routine shipments of eggs (American Biological Supply, Gainesville, Fla.) were used to maintain a continuous supply of adult 5-10 day old mosquitoes.
Assays for Attraction of Mosquitoes to Human Subjects: A group of 30 volunteers, consisting of 14 females and 16 males and ranging in age from 24 to 68 years, was selected from the surrounding civilian population. Individuals were tested for their ability to attract Aedes aegypti mosquitoes contained in the olfactometer. Tests were conducted at a temperature of 27° C. and 50% relative humidity. For each trial 15 avid adult female Aedes aegypti mosquitoes (5-10 days post-emergence) were placed in the upper chamber. […] The number of mosquitoes entering the lower chamber within a 3 minute period was recorded. The volunteer then placed his or her arm beneath the lower chamber and the number of mosquitoes flying from the upper chamber to the lower chamber was recorded for the time intervals 0-1, 1-3, 3-5 and 5-7 minutes. […]
Test compounds were dissolved in acetone or ethanol at a concentration of 300 mg/5 cc. […] Percent repellency was determined from the fraction of mosquitoes entering the lower chamber over a seven minute period. […]

SMILES | Rating against the malaria mosquito [1] | Percent Repellency (Aedes aegypti mosquitoes [2]) [%] | mean repellency at 2 hours after application (Aedes aegypti mosquitoes [3]) | Percent Repellency (Aedes aegypti mosquitoes [2]; listed as Lauric acid)
CCCCCCCCCC(=O)O [Decanoic acid] | 3 (rated 3 (61-90 min.)) | 100 ± 0 |  | 
CCC(C)=CC(=O)O [3-Methyl-2-pentenoic acid, 3-Methyl-2-pentenoic Acid] |  | 65 ± 16 |  | 
CCCCCCCCCCC(=O)O [Undecanoic acid] | 4 (rated 4 (90+ min.)) | 93 ± 0 |  | 
CCCCCC(C)=CC(=O)O [3-Methyl-2-octenoic acid] |  | 95 ± 6 | 66-73% | 
CCCCCCCCC(=O)O [Nonanoic acid] | 2 (rated 2 (31-60 min)) | 97 ± 5 | 66-73% | 
CCCCC(C)CCC(=O)O (stereo not shown) [4-Methyloctanoic acid] |  |  | 66-73% | 
CCCCCCC(=O)O [Ethanthic, ethanthic acid, reference compound] | 4 (rated 4 (90+ min.)) |  |  | 
CCCCCCCCCCCC(=O)O [Dodecanoic acid] |  | 93 |  | 69% and 69 ± 23%
O=C1CCCCN1 [Valerolactam] |  | 20 ± 22 |  | 
CCC=CC(=O)O [2-Pentenoic acid, 2-Pentenoic Acid] |  | 100 ± 0 |  | 
